The campaign covered roughly 310,000 compounds. About 2,200 (0.71%) showed an effect of 50% or more. The effect is printed as a negative number. This is one part of the list.
Biological target: human ether-à-go-go-related gene (hERG) potassium channel (human, UniProt Q12809)
Test: primary screen, population patch clamp on CHO cells stably expressing hERG

Chain of human ether-à-go-go-related gene (hERG) potassium channel (Q12809 whole entry, looked up): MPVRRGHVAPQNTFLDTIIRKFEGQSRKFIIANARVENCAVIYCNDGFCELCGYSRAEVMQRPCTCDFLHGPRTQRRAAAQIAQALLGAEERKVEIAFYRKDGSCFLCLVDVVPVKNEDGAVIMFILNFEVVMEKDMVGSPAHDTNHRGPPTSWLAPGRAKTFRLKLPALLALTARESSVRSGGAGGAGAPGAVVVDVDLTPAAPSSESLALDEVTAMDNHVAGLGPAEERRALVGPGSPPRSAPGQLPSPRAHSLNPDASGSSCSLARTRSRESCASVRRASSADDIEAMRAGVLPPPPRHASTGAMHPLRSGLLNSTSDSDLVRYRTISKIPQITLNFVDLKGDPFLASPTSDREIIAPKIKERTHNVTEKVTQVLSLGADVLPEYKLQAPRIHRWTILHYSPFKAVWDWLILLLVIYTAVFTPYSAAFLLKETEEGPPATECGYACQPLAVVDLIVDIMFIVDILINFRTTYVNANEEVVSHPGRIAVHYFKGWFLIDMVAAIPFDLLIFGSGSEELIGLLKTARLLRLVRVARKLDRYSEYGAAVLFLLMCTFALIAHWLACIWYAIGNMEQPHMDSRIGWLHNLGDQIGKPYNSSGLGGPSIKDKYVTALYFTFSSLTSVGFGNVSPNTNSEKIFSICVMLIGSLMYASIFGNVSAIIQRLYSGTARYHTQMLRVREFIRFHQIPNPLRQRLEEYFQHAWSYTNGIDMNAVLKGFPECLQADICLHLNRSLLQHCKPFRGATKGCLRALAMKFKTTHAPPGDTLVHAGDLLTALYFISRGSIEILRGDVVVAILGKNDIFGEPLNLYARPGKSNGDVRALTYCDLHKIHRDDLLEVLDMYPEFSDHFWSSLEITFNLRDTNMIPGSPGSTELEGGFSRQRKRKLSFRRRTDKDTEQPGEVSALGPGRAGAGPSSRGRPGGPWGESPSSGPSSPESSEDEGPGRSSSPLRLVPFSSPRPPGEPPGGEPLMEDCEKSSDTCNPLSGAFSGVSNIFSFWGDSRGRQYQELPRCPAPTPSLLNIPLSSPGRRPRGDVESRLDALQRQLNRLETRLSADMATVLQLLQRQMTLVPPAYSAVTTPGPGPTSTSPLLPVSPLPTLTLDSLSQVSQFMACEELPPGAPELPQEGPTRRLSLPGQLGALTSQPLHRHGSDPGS

Compound | hERG current change (%, negative = inhibition) at 1uM
O=C(CCc1ccccc1)NC1CCCc2ccccc21 (stereo not shown) | 10.4%
COC(=O)c1c(NC(=O)CC2Nc3ccccc3NC2=O)sc(C)c1C (stereo not shown) | 7.43%
CCN(CC)CCN(Cc1cc2cc3c(cc2[nH]c1=O)OCO3)C(=S)NCCOC | 11.1%
Cc1ccc(S(=O)(=O)N2CCOCC2)c(C)c1NS(C)(=O)=O | 13.3%
COc1cc(/C(C)=N/NC(=O)CN2CCN(S(=O)(=O)c3ccc(C)cc3)CC2)ccc1O | 6.69%
S=c1[nH]nc(C2CCCCC2)n1/N=C/c1cccc(Br)c1 | 6.52%
CCOc1ccc(C2C(C#N)=C(C)NC3=C2C(=O)c2ccccc23)cc1 (stereo not shown) | -2.53%
Cc1sc2nc(C3CC3)nc(SCC(=O)N3CCc4ccccc4C3)c2c1C | 11.7%
COc1ccc(C(=O)COC(=O)COc2ccc(C)c(C)c2)cc1 | 17.4%
Fc1cccc(Cc2noc(CN3CCCCC3c3ccccn3)n2)c1 (stereo not shown) | 4.78%
COCCn1nnnc1CN(CCc1ccc(OC)c(OC)c1)Cc1cc2ccc(C)cc2[nH]c1=O | -12%
Cc1cccc(C(=O)N2CCC(=O)N(C(COCc3ccc(Cl)cc3)Cc3ccccc3)CC2)c1 (stereo not shown) | 7.32%
CCOC(=O)C(NCc1ccccc1)(NC(=O)c1ccccc1)C(F)(F)F (stereo not shown) | 12.5%
Cc1noc(/C=C/c2nn(C)cc2Cl)c1[N+](=O)[O-] | 15.9%
O=C(NC(=S)Nc1ccccc1O)c1cncc(Br)c1 | 22.5%
Nc1nonc1C(=Nc1ccccc1)NO | 12.9%
COc1ccccc1-c1nc(-c2ccc(Br)cc2)no1 | 11.3%
Cc1nn(-c2ccccc2)c(C)c1C(=O)Oc1ccccc1 | 9.28%
COc1ccc(/C=C2\SC(=S)N(CCC(=O)Nc3cccc(C(=O)O)c3)C2=O)cc1 | 14.9%
CC(=O)NC1C(=O)N(C)c2ccc(Br)cc21 (stereo not shown) | 2%
COc1ccc(CC(=O)Nc2ccc(-c3nnc(-c4ccc(C)cc4)o3)cc2)cc1 | 15.3%
COc1cc(-c2[nH]ncc2CN2CCN(Cc3cccs3)CC2)cc(OC)c1OC | 0.976%
O=C(O)c1ccc(NS(=O)(=O)c2ccc3c(c2)C(=O)c2ccccc2C3=O)cc1 | 13.6%
CC(C)(C)c1ccccc1NC(=O)Cn1c(=O)cnc2ccccc21 | -0.714%
O=C(O)c1cccc2c1C(=O)c1ccc(Cl)cc1S2(=O)=O | 15.6%
CCCn1c(N)c(C(=O)CSc2nncs2)c(=O)[nH]c1=O | 6.62%
Cc1cc(NC(=O)c2ccc(S(=O)(=O)Nc3ccccc3)cc2)no1 | 10.8%
Cc1ccc(-n2nnnc2SCC(=O)Nc2ccccc2-c2ccccc2)cc1C | 2.73%

Compound | hERG current change (%, negative = inhibition) at 1uM
CC(Oc1ccc2ccc(=O)oc2c1)C(=O)N1CCOCC1 (stereo not shown) | 9.75%
Cn1nc(-c2ccc(Cl)cc2)c2cc(C(=O)N3CCN(c4ccccn4)CC3)sc21 | 13%
Cc1cc(C)cc(Oc2ncnc3c2ncn3Cc2c(Cl)cccc2Cl)c1 | -4.86%
COCCn1c(C)cc(C(=O)COC(=O)C2CC(=O)N(CCc3ccc(OC)c(OC)c3)C2)c1C (stereo not shown) | 4.75%
COc1ccc(N2CCN(CC(O)COc3ccc4c(c3)CCC4)CC2)cc1.Cl (stereo not shown) | -17.6%
CC(=O)Oc1ccc(-c2cccc(C(=O)OCC(=O)N(C)c3ccccc3)c2)cc1 | -0.992%
O=S(=O)(NC1CCCCC1Nc1ccccc1)c1ccccc1 (stereo not shown) | 1.52%
O=C1CN(C(=O)c2ccccc2)c2ccccc2N1 | 3.57%
CC(C)C[C@H](NC(=O)OC(C)(C)C)C(=O)N1CCC(C(=O)N[C@@H](Cc2c[nH]c3ccccc23)C(=O)O)CC1 | 11.2%
Cc1ccc2nc(-c3ccccc3)c(CN3CCN(c4ccccc4F)CC3)n2c1 | 16.1%
CCCCCCCCCCCCCCCC[n+]1cccc(C(=O)N(CC)CC)c1.[Br-] | 4.44%
[Br-].c1ccc(-c2c[n+]3c(n2-c2ccccc2)CCC3)cc1 | 6.4%
O=C(CSc1ccc2nnc(-c3cccnc3)n2n1)Nc1cccc(F)c1 | -9.62%
Cc1cc(C)nc(/N=C(\N)Nc2ccc([N+](=O)[O-])cc2)n1 | -3.99%
COc1ccc(-c2nc(CS(=O)(=O)CC(=O)NCc3ccc(F)cc3)c(C)o2)cc1 | 14.1%
Cc1cccc(C)c1Nc1nnc(SCC(=O)NC2CCS(=O)(=O)C2)s1 (stereo not shown) | -0.271%
Cc1ccc(S(=O)(=O)Nc2ccc(Oc3cccnc3)nc2)cc1 | 14.5%
CCOc1ccc2[nH]c3c(NCCN(CC)CC)ncnc3c2c1 | -44.9%
Cc1cc(/C=C2\SC(=S)N(C)C2=O)c(C)n1-c1cccc(O)c1 | -0.007%
CCCn1cnc2cc(NCc3cccc(OC)c3)ccc21 | -33.6%
Cc1cc(N)n(-c2ccc(Cl)cc2)n1 | 12.6%
Cc1ccccc1NC(=O)CN1C(=O)C2C3CC(C(Br)C3Br)C2C1=O (stereo not shown) | 11.2%
Cc1csc2c(N(C)CCO)ncnc12 | 17.1%
C/C(=N\NC(=O)c1ccc([N+](=O)[O-])cc1)c1c(O)cc(C)oc1=O | 20.5%
COC(=O)C1=C(C)NC(C)=C(C(=O)OC)C1c1ccc(OC(=O)c2oc3ccccc3c2C)c(OC)c1 | 12.1%
CCCCCCc1cc2cc(C(N)=O)c(=N)oc2cc1O | -8.07%
O=C(c1ccccn1)N(Cc1ccco1)C1(C(=O)NC2CCCCC2)CCCCC1 | 11.2%

Source: PMC4336329 (PLoS ONE, 2015)
